# Data published in the supplement of paper PMC10037445.
# Over roughly 2,900 compounds, “NF-kB SEAP reporter activity, fold change vs agonist alone” has its median near 0.99; the highest 2% begin near 2.6. This is one part of the list.
# Tests used:
# RAW-Dual [1] = test: NF-kB SEAP reporter activity, fold change vs agonist alone; cytotoxicity flag (confluency mask): not cytotoxic; higher = enhanced NF-kB activity
# Outline: (§1)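 After 50 nL of library stock was delivered by pin tool to RAW-Dual macrophages (50,000 cells/well, DMEM, 384-well plates), a PRR agonist was added 1 h later and the plates were kept at 37 °C, 5% CO2. Twenty hours later, IRF was read from supernatant by QuantiLuc luminescence and NF-κB by QuantiBlue absorbance at 620 nm. Reporter activity is stated as fold change over agonist-alone wells. Wells with IncuCyte confluency under 70% of agonist controls in both mask sets were counted as cytotoxic.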
# RAW-Dual [2] = test: NF-kB SEAP reporter activity, fold change vs agonist alone; higher = enhanced NF-kB activity; conditions: library stock concentration (final ~1000-fold dilution): 10 mM
# Outline: as §1
# RAW-Dual [3] = test: NF-kB SEAP reporter activity, fold change vs agonist alone; cytotoxicity flag (confluency mask): cytotoxic (confluency <70% of control); higher = enhanced NF-kB activity
# Outline: as §1
# [4] = agonist: ODN 1826 (TLR9) 0.5 ug/mL
# [5] = agonist: Pam2CSK4 (TLR2/6) 0.1 ug/mL
# [6] = agonist: Pam3CSK4 (TLR2/1) 0.1 ug/mL
# [7] = cytotoxicity flag (confluency mask): not cytotoxic, agonist: Imiquimod (TLR7) […]
# [8] = cytotoxicity flag (confluency mask): not cytotoxic, agonist: MPLA (TLR4) […]
# [9] = cytotoxicity flag (confluency mask): cytotoxic (confluency <70% of control), agonist: Imiquimod (TLR7) […]
# [10] = cytotoxicity flag (confluency mask): cytotoxic (confluency <70% of control), agonist: MPLA (TLR4) […]
structure (smiles),measurement,setting,value
CN1C(=O)NC(Cc2c[nH]c3c(Cl)cccc23)C1=O (stereo not drawn) (library stock concentration (final ~1000-fold dilution): 10 mM),NF-kB SEAP reporter activity,RAW-Dual [1]; agonist: LPS (TLR4) 0.1 ug/mL,1.33
same,NF-kB SEAP reporter activity,RAW-Dual [1]; [4],0.951
same,NF-kB SEAP reporter activity,RAW-Dual [1]; [5],0.977
same,NF-kB SEAP reporter activity,RAW-Dual [1]; [6],1.31
CN1C(=O)NC(Cc2c[nH]c3c(Cl)cccc23)C1=O (stereo not drawn),NF-kB SEAP reporter activity,RAW-Dual [2]; [7],0.354
same,NF-kB SEAP reporter activity,RAW-Dual [2]; [8],0.685
Cc1cc(C(=O)NC(C)(C)C)cc(C#Cc2ccc3c4c(oc3c2)C(C)(C)c2cc(NS(C)(=O)=O)ccc2C4=O)n1,NF-kB SEAP reporter activity,RAW-Dual [2]; [7],1
same,NF-kB SEAP reporter activity,RAW-Dual [2]; [8],0.918
Cc1cc(C(=O)NC(C)(C)C)cc(C#Cc2ccc3c4c(oc3c2)C(C)(C)c2cc(NS(C)(=O)=O)ccc2C4=O)n1 (library stock concentration (final ~1000-fold dilution): 10 mM),NF-kB SEAP reporter activity,RAW-Dual [1]; agonist: LPS (TLR4) 0.1 ug/mL,1.17
same,NF-kB SEAP reporter activity,RAW-Dual [1]; [4],0.858
same,NF-kB SEAP reporter activity,RAW-Dual [1]; [5],0.258
same,NF-kB SEAP reporter activity,RAW-Dual [1]; [6],0.256
COc1ccc2c(c1)c(C1=C(c3c[nH]c4ccccc34)C(=O)NC1=O)cn2CCCN(C)C,NF-kB SEAP reporter activity,RAW-Dual [2]; [9],2.44
same,NF-kB SEAP reporter activity,RAW-Dual [2]; [10],1.71
COc1ccc2c(c1)c(C1=C(c3c[nH]c4ccccc34)C(=O)NC1=O)cn2CCCN(C)C (library stock concentration (final ~1000-fold dilution): 10 mM),NF-kB SEAP reporter activity,RAW-Dual [3]; agonist: LPS (TLR4) 0.1 ug/mL,1.23
same,NF-kB SEAP reporter activity,RAW-Dual [3]; [4],0.346
same,NF-kB SEAP reporter activity,RAW-Dual [3]; [5],1.25
same,NF-kB SEAP reporter activity,RAW-Dual [3]; [6],1.82
NC(=O)c1cc(F)cc2c1C(=O)N(C1CCN(C3CCC(F)(F)CC3)CC1)C2,NF-kB SEAP reporter activity,RAW-Dual [2]; [7],1.12
same,NF-kB SEAP reporter activity,RAW-Dual [2]; [8],1.11
NC(=O)c1cc(F)cc2c1C(=O)N(C1CCN(C3CCC(F)(F)CC3)CC1)C2 (library stock concentration (final ~1000-fold dilution): 10 mM),NF-kB SEAP reporter activity,RAW-Dual [1]; agonist: LPS (TLR4) 0.1 ug/mL,1.2
same,NF-kB SEAP reporter activity,RAW-Dual [1]; [4],0.868
same,NF-kB SEAP reporter activity,RAW-Dual [1]; [5],1.15
same,NF-kB SEAP reporter activity,RAW-Dual [1]; [6],1.45
CC(C)=CCC[C@](C)(O[C@@H]1O[C@H](CO)[C@@H](O)[C@H](O)[C@H]1O)[C@H]1CC[C@]2(C)[C@@H]1[C@H](O)C[C@@H]1[C@@]3(C)CC[C@H](O)C(C)(C)[C@@H]3[C@@H](O[C@@H]3O[C@H](CO)[C@@H](O)[C@H](O)[C@H]3O)C[C@]12C,NF-kB SEAP reporter activity,RAW-Dual [2]; [7],0.936
same,NF-kB SEAP reporter activity,RAW-Dual [2]; [8],1.01
CC(C)=CCC[C@](C)(O[C@@H]1O[C@H](CO)[C@@H](O)[C@H](O)[C@H]1O)[C@H]1CC[C@]2(C)[C@@H]1[C@H](O)C[C@@H]1[C@@]3(C)CC[C@H](O)C(C)(C)[C@@H]3[C@@H](O[C@@H]3O[C@H](CO)[C@@H](O)[C@H](O)[C@H]3O)C[C@]12C (library stock concentration (final ~1000-fold dilution): 10 mM),NF-kB SEAP reporter activity,RAW-Dual [1]; agonist: LPS (TLR4) 0.1 ug/mL,1.08
same,NF-kB SEAP reporter activity,RAW-Dual [1]; [4],1.06
same,NF-kB SEAP reporter activity,RAW-Dual [1]; [5],1.19
same,NF-kB SEAP reporter activity,RAW-Dual [1]; [6],1.12
O=C(CCc1ccc(O)cc1)c1c(O)cccc1OC1OC(CO)C(O)C(O)C1O (stereo not drawn) (library stock concentration (final ~1000-fold dilution): 10 mM),NF-kB SEAP reporter activity,RAW-Dual [1]; agonist: LPS (TLR4) 0.1 ug/mL,1.01
same,NF-kB SEAP reporter activity,RAW-Dual [1]; [4],0.961
same,NF-kB SEAP reporter activity,RAW-Dual [1]; [5],1.01
same,NF-kB SEAP reporter activity,RAW-Dual [1]; [6],0.915
O=C(CCc1ccc(O)cc1)c1c(O)cccc1OC1OC(CO)C(O)C(O)C1O (stereo not drawn),NF-kB SEAP reporter activity,RAW-Dual [2]; [7],0.97
same,NF-kB SEAP reporter activity,RAW-Dual [2]; [8],1.1
Nc1c2c(nc3ccccc13)CCCC2,NF-kB SEAP reporter activity,RAW-Dual [2]; [7],1.17
same,NF-kB SEAP reporter activity,RAW-Dual [2]; [8],1.01
Nc1c2c(nc3ccccc13)CCCC2 (library stock concentration (final ~1000-fold dilution): 10 mM),NF-kB SEAP reporter activity,RAW-Dual [1]; agonist: LPS (TLR4) 0.1 ug/mL,1.3
same,NF-kB SEAP reporter activity,RAW-Dual [1]; [4],0.327
same,NF-kB SEAP reporter activity,RAW-Dual [1]; [5],1.03
same,NF-kB SEAP reporter activity,RAW-Dual [1]; [6],0.98
O=c1sn(-c2cccc3ccccc23)c(=O)n1Cc1ccccc1,NF-kB SEAP reporter activity,RAW-Dual [2]; [9],0.75
same,NF-kB SEAP reporter activity,RAW-Dual [2]; [10],0.747
O=c1sn(-c2cccc3ccccc23)c(=O)n1Cc1ccccc1 (library stock concentration (final ~1000-fold dilution): 10 mM),NF-kB SEAP reporter activity,RAW-Dual [3]; agonist: LPS (TLR4) 0.1 ug/mL,0.547
same,NF-kB SEAP reporter activity,RAW-Dual [3]; [4],0.455
same,NF-kB SEAP reporter activity,RAW-Dual [3]; [5],0.528
same,NF-kB SEAP reporter activity,RAW-Dual [3]; [6],0.893
C/C(=C(\CCOP(=O)(O)O)SC(=O)c1ccccc1)N(C=O)Cc1cnc(C)nc1N,NF-kB SEAP reporter activity,RAW-Dual [2]; [7],0.803
same,NF-kB SEAP reporter activity,RAW-Dual [2]; [8],0.983
C/C(=C(\CCOP(=O)(O)O)SC(=O)c1ccccc1)N(C=O)Cc1cnc(C)nc1N (library stock concentration (final ~1000-fold dilution): 10 mM),NF-kB SEAP reporter activity,RAW-Dual [1]; agonist: LPS (TLR4) 0.1 ug/mL,0.998
same,NF-kB SEAP reporter activity,RAW-Dual [1]; [4],0.99
same,NF-kB SEAP reporter activity,RAW-Dual [1]; [5],1.09
same,NF-kB SEAP reporter activity,RAW-Dual [1]; [6],0.98
CCN(CC)C(=S)SSC(=S)N(CC)CC (library stock concentration (final ~1000-fold dilution): 10 mM),NF-kB SEAP reporter activity,RAW-Dual [1]; agonist: LPS (TLR4) 0.1 ug/mL,1.74
same,NF-kB SEAP reporter activity,RAW-Dual [1]; [4],1.13
same,NF-kB SEAP reporter activity,RAW-Dual [1]; [5],0.688
same,NF-kB SEAP reporter activity,RAW-Dual [1]; [6],0.686
CCN(CC)C(=S)SSC(=S)N(CC)CC,NF-kB SEAP reporter activity,RAW-Dual [2]; [7],2.24
same,NF-kB SEAP reporter activity,RAW-Dual [2]; [8],1.43
O=C1C(=Cc2cccnc2)C(=O)c2ccccc21 (library stock concentration (final ~1000-fold dilution): 10 mM),NF-kB SEAP reporter activity,RAW-Dual [1]; agonist: LPS (TLR4) 0.1 ug/mL,0.821
same,NF-kB SEAP reporter activity,RAW-Dual [1]; [4],0.883
same,NF-kB SEAP reporter activity,RAW-Dual [1]; [5],1.08
same,NF-kB SEAP reporter activity,RAW-Dual [1]; [6],0.99
O=C1C(=Cc2cccnc2)C(=O)c2ccccc21,NF-kB SEAP reporter activity,RAW-Dual [2]; [8],1.03
COc1ccc(C(=O)O)cc1O (library stock concentration (final ~1000-fold dilution): 10 mM),NF-kB SEAP reporter activity,RAW-Dual [1]; agonist: LPS (TLR4) 0.1 ug/mL,1.41
same,NF-kB SEAP reporter activity,RAW-Dual [1]; [4],0.929
same,NF-kB SEAP reporter activity,RAW-Dual [1]; [5],1.19
same,NF-kB SEAP reporter activity,RAW-Dual [1]; [6],1.02
COc1ccc(C(=O)O)cc1O,NF-kB SEAP reporter activity,RAW-Dual [2]; [8],1.01
O=C(CCCCCN1C(=O)c2cccc3cccc(c23)C1=O)NO (library stock concentration (final ~1000-fold dilution): 10 mM),NF-kB SEAP reporter activity,RAW-Dual [3]; agonist: LPS (TLR4) 0.1 ug/mL,3.67
same,NF-kB SEAP reporter activity,RAW-Dual [3]; [4],2.57
COc1cc2nc(N3CCN(C(=O)C4CCCO4)CC3)nc(N)c2cc1OC.Cl.O.O (stereo not drawn) (library stock concentration (final ~1000-fold dilution): 10 mM),NF-kB SEAP reporter activity,RAW-Dual [1]; agonist: LPS (TLR4) 0.1 ug/mL,1.17
same,NF-kB SEAP reporter activity,RAW-Dual [1]; [4],1.21
same,NF-kB SEAP reporter activity,RAW-Dual [1]; [5],1.05
same,NF-kB SEAP reporter activity,RAW-Dual [1]; [6],1.19
COc1cc2nc(N3CCN(C(=O)C4CCCO4)CC3)nc(N)c2cc1OC.Cl.O.O (stereo not drawn),NF-kB SEAP reporter activity,RAW-Dual [2]; [7],1.09
same,NF-kB SEAP reporter activity,RAW-Dual [2]; [8],1.02
